We go through 86 molecules from paper PMC4336329 (PLoS ONE, 2015).

About 14,000 (4.5%) of roughly 310,000 compounds showed an effect of 50% or more. The effect is printed as a negative number. Some of the results follow.
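Also: peak tail current of the secondary pulse compared with the same well before compound.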

The experiment deals with human ether-à-go-go-related gene (hERG) potassium channel (human, UniProt Q12809). As to the kind of experiment: primary screen, population patch clamp on CHO cells stably expressing hERG.
Chain of human ether-à-go-go-related gene (hERG) potassium channel (Q12809 whole entry, looked up): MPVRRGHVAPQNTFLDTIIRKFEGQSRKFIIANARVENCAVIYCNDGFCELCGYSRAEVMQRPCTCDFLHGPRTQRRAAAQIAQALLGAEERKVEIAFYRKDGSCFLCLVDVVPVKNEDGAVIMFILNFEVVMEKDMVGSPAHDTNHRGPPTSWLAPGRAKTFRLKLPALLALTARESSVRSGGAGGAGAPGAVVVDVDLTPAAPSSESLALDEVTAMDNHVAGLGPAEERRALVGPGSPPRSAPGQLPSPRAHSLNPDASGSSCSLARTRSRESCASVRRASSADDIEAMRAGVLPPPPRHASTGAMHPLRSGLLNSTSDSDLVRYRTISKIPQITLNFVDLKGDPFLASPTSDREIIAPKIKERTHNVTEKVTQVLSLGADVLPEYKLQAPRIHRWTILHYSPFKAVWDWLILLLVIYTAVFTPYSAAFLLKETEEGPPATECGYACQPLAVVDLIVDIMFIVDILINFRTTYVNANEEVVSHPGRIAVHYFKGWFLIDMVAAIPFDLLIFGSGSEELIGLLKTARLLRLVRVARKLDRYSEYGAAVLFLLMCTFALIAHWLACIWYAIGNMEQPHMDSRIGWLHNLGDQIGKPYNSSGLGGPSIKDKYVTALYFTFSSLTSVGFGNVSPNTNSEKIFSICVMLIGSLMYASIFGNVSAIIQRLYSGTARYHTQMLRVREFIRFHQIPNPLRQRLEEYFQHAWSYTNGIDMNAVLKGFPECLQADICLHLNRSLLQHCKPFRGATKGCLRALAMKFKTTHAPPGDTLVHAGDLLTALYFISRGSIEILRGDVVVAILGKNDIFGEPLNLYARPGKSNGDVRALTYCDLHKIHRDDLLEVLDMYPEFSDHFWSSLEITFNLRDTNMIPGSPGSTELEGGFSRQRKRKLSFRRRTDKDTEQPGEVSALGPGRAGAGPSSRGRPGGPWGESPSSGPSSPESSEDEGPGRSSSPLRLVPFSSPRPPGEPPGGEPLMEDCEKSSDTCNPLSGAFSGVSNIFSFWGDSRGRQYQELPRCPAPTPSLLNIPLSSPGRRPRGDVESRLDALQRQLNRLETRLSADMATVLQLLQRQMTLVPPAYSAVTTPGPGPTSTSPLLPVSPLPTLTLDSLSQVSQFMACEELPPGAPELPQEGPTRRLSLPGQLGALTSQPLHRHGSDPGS
`CN1CCC(=NNC(=O)c2ccco2)CC1`: the “hERG current change (%, negative = inhibition) at 10uM” value is reported as -3.61%.
In the case of `CC(=O)Nc1nc2c(s1)CCc1ccccc1-2`, the “hERG current change (%, negative = inhibition) at 10uM” value was determined as 17.1%.
Then `CC(=O)NC(=S)Nc1ccc(-c2nc3ccc(C)cc3s2)cc1`, with 13%; and `NS(=O)(=O)c1cccc(NC(=O)COC(=O)/C(=C/c2cccs2)c2cccs2)c1`, with -23%; and `CC(=O)N(C)c1ccc(NS(=O)(=O)Cc2ccccc2)cc1`, with -8.12%.
Then `CN(C)c1ccc(CNC(=O)CCS(=O)(=O)c2ccc3c(c2)oc(=O)n3C)cc1`, with 9.08%; and `Cc1ccc(CN2CCN(/N=C/c3cccs3)CC2)cc1`, with -38%; and `CCCNC(=O)NC1CCCc2ccccc21` (centres unmarked), with 1.35%.
In the case of `NNC(=O)c1cnn(-c2ccccc2)c1-n1cccc1`, the “hERG current change (%, negative = inhibition) at 10uM” value turned out to be 0.869%.
For the molecule `CC(C)CN(C(=O)CSc1nc2ccccc2o1)c1c(N)n(Cc2ccccc2)c(=O)[nH]c1=O`, the “hERG current change (%, negative = inhibition) at 10uM” value is recorded as -11.8%.
For `Cc1ccc(OCC(=O)Nc2ccccc2F)cc1` the value was -0.548%.
For `Cc1ccc2c(c1)N(C(=O)CCC(=O)N1CCc3ccccc3C1)CCO2` the value was -20.4%; for `Cl.c1coc(C2=NCCc3ccccc32)c1`, -9.79%; for `CCCS(=O)(=O)NCc1cn2c(C)csc2n1`, 0.533%.
For the molecule `CC(=O)n1cc([C@H]2C=C(C(=O)N3CCOCC3)O[C@@H](OCCCCO)C2)c2ccccc21`, the “hERG current change (%, negative = inhibition) at 10uM” value is reported as -17.1%.
For `CC(=O)Nc1ccc(NC(=O)CCCCCn2nnc3ccccc3c2=O)cc1` the value was 20.8%; for `Cc1ccccc1N/C(SCc1ccc(Cl)cc1)=C(/C#N)C(N)=O`, -10.1%.
For the molecule `COc1ccccc1C(=O)NC(=O)Cn1nc(C)c([N+](=O)[O-])c1C`, the “hERG current change (%, negative = inhibition) at 10uM” value is -6.14%.
Consider `CC(C)[C@H](NC(=O)c1ccccc1)C(=O)OCC(=O)NCc1ccc(F)cc1`, for which the “hERG current change (%, negative = inhibition) at 10uM” value is 14.4%.
As to `CC(Oc1ccc(Cl)cc1Cl)c1nc(-c2ccccn2)no1` (centres unmarked), the “hERG current change (%, negative = inhibition) at 10uM” value was -34.4%.
For `N#C/C(=C(/O)CN1CCN(c2ccccc2F)CC1)c1nc(-c2ccc(Cl)cc2)cs1` the value was -2.48%; for `Cc1ccc(S(=O)(=O)N2CC3CCCC2C3)cc1` (centres unmarked), 0.346%; for `O=C(O)CN(c1ccccc1F)S(=O)(=O)c1ccccc1`, 29.9%.
Then `Cc1ccc(Nc2nc(-c3c(C)nc4ncccn34)cs2)cc1`, with -10.4%.
For the molecule `Cc1cc(C)c2nc(N3CCCN(C(=O)c4ccco4)CC3)c(C#N)cc2c1`, the “hERG current change (%, negative = inhibition) at 10uM” value is recorded as -38.8%.
For `O=S(=O)(c1cccc(-c2csc(-c3cccnc3)n2)c1)N1CCOCC1` the value was -20.2%; for `CNS(=O)(=O)c1cccc(C(=O)OCC(=O)N2CCc3ccccc3C2)c1`, -6.33%; for `Cc1csc(NC(=O)CSc2ccc3nnc(-c4ccncc4)n3n2)n1`, 5.89%.
For `COc1cc2c(-c3ccc4cc[nH]c4c3)c(-c3ccc(C#N)cc3)oc(=O)c2cc1OC` the value was 12.4%; for `CC1CCN(C(=O)CN(c2cccc(F)c2)S(C)(=O)=O)CC1`, -8.32%; for `C=C(C)CN(CC)C(=O)COc1ccc(S(=O)(=O)Nc2ccc(OC)cc2)cc1`, -7.21%.
Regarding `COCCNC(=O)CN(C(=O)CCC(=O)Nc1ccccn1)c1ccc(F)c(Cl)c1`, the “hERG current change (%, negative = inhibition) at 10uM” value came out at 4.59%.
For `CCCn1c(Cc2ccccc2)nnc1SC(C)C(=O)NC1CC1` (centres unmarked), the “hERG current change (%, negative = inhibition) at 10uM” value is listed as 2.02%.
For `CC(C)[C@H](NC(=O)[C@H](Cc1ccccc1)n1c(=O)[nH]c2ccccc2c1=O)C(=O)N1CCC[C@H]1C(=O)O` the value was 10.1%.
Then `O=C(COC(=O)C1CC1)NCCNC(=O)COC(=O)C1CC1`, with 11.1%; and `O=C(Nc1nnc(SCC(=O)N2CCCc3ccccc32)s1)c1cccc2ccccc12`, with 6.65%; and `COc1ccc(-c2cc3c(=O)n(CC(=O)NCc4cccnc4)ncn3n2)cc1`, with -16.5%.
Then `Cc1cc(C)c(/C([O-])=C(/C(=S)Nc2ccc(SC(F)F)cc2)[n+]2ccccc2)cc1C`, with 0.184%; and `O=[N+]([O-])c1cc(C(F)(F)F)cc([N+](=O)[O-])c1N1CCN(S(=O)(=O)c2ccccc2)CC1`, with -8.9%; and `CCCCn1c(C)cc(C)c(S(=O)(=O)c2ccccc2C)c1=O`, with 6.88%.
In the case of `Cc1ccc2c(c1)c1c(n2C)C(=O)CCC1`, the “hERG current change (%, negative = inhibition) at 10uM” value is given as 11.8%.
Then `CN(C(=O)COc1ncnc2c1cnn2-c1ccccc1)C1CCCCC1`, with 0.236%; and `CC(C)[C@@H]1COC(c2cccc(C3=N[C@H](C(C)C)CO3)n2)=N1`, with 5.3%.
For `CC(NC(=O)/C(=C\c1ccco1)NC(=O)c1ccccc1Br)C(=O)O` (centres unmarked) the value was 11.6%; for `Cn1c(-c2cccc([N+](=O)[O-])c2)[n+](C)c2ccccc21.[Cl-]`, -48%; for `CCn1c2ccccc2c2cc(NC(=O)CCCN3C(=O)CCC3=O)ccc21`, -3.97%.
As to `COc1cc2c(cc1OC)CN(C(=O)NS(=O)(=O)c1ccc(C)cc1)CC2`, the “hERG current change (%, negative = inhibition) at 10uM” value was -1.8%.
For `O=C1c2ccccc2C(O)(c2ccccc2)N1CCc1ccccc1` (centres unmarked) the value was -19.3%; for `O=c1c(Cl)c(NCc2ccco2)cnn1C12CC3CC(CC(C3)C1)C2`, -22.7%.
For `CCOC(=O)N1CCN(C(=O)c2ccc(Cl)nc2)CC1` the value was -19.9%; for `CN(Cc1ccccc1)C(=O)CSc1nnc(-c2ccco2)n1-c1ccccc1`, -80.2%.
In the case of `Cc1ccc(-c2nc(SCC(=O)c3c(N)n(C)c(=O)n(C)c3=O)n[nH]2)cc1`, the “hERG current change (%, negative = inhibition) at 10uM” value is given as 4.55%.
Then `COc1ccc(NC(=O)CSc2n[nH]c(-c3ccccc3)n2)cc1S(N)(=O)=O`, with -4.78%.
Then `Cc1nc(SCC(=O)NCc2ccco2)c2oc3ccccc3c2n1`, with -11.8%; and `CCc1ccccc1N(C)S(=O)(=O)c1ccc2[nH]cc(C(=O)N3CCc4ccccc43)c(=O)c2c1`, with -18.2%; and `CC1C2Cn3c(nc4ccccc43)C1N(C)O2` (centres unmarked), with 12.9%.
Then `COc1ccccc1C(=O)NC(=S)Nc1ccc(S(=O)(=O)N2CCN(C)CC2)cc1`, with 3.18%.
With `Cc1sc2nnn(CC(=O)N3CCN(C(=O)c4ccco4)CC3)c(=O)c2c1C`, the “hERG current change (%, negative = inhibition) at 10uM” value was -32.4%.
Then `OC(CN(c1ccccc1)c1ccccc1)Cn1cnc2ccccc21` (centres unmarked), with -25.9%; and `CCN(CC)CC(=O)Nc1cccc(S(=O)(=O)N2CCCC2)c1`, with 2.42%; and `COC(=O)CN1C(=S)N(c2ccc(OC)cc2)C(=O)/C1=C/c1ccc(N2CCOCC2)cc1`, with 4.72%.
Consider `CCc1nnc2c(NCCc3ccccc3)nc3ccccc3n12`, for which the “hERG current change (%, negative = inhibition) at 10uM” value is 8.04%.
For `CCOc1ccccc1NC(=O)C1CCC(CNc2c(N3CCCCC3)c(=O)c2=O)CC1` (centres unmarked) the value was 7.02%; for `CCOC(=O)C1(Cc2cccc(OC)c2)CCN(Cc2cccc3cnccc23)CC1`, -39.3%.
For `COC(=O)C1=C(c2ccc(OC(F)(F)F)cc2)C[C@@H]2CC[C@H]1N2C(=O)NC1CC1` the value was -10.9%; for `CC1CCN(C(=O)c2ccc(CNc3c(N4CCCC4)c(=O)c3=O)cc2)CC1`, 1.58%.
As to `C/C(Cc1ccccc1)=N\NC(=O)CNC(=O)c1ccccc1`, the “hERG current change (%, negative = inhibition) at 10uM” value is on record as 11.7%.
Consider `CC(C)C(NC(=O)OCc1ccccc1)C(=O)OCC(=O)N1CCCCC1` (centres unmarked), for which the “hERG current change (%, negative = inhibition) at 10uM” value was -7.36%.
For `CCOc1ccc(S(=O)(=O)N2CCC(C(=O)NC3CCCCC3)CC2)cc1` the value was 18.3%; for `CCc1c(C)c(C#N)c2nc3ccccc3n2c1N1CCN(c2cc(C)ccn2)CC1`, 17.4%.
Then `COc1ccc(CC(=O)Nc2ccc(OC)nc2)cc1`, with 7.08%; and `O=C1NC(=S)NC(=O)C12C(c1ccc(F)cc1)NC(=S)NC2c1ccc(F)cc1` (centres unmarked), with -4.14%.
Take `O=C(CC12CC3CC(CC(C3)C1)C2)NC(=S)NCc1ccccc1`: the “hERG current change (%, negative = inhibition) at 10uM” value was 0.161%.
For `Cc1ncc(CN2CCN(C(C)C)C(CCO)C2)s1` (centres unmarked), the “hERG current change (%, negative = inhibition) at 10uM” value came to 19%.
For `O=C(C1=NN[C@@H]2C(=O)N(c3ccccc3C(F)(F)F)C(=O)[C@H]12)c1ccc2ccccc2n1` the value was -19.7%.
For `COc1ccccc1NC(=O)c1cc2c(=O)n(C)c3ccccc3c2n1C` the value was 1.19%.
Then `CC12CCC(C/C1=N\N=C1\NC(=O)/C(=C\c3ccc(Cl)cc3)S1)C2(C)C` (centres unmarked), with 12.2%; and `CCOC(=O)NC(=O)CSc1nnnn1-c1ccc(Cl)cc1`, with -47.8%; and `Cl.O=C(O)C1=CCNCC1`, with 17.6%.
On to `O=C(Nc1c2c(nn1-c1ccc(F)cc1)CS(=O)C2)c1ccco1` (centres unmarked), for which the “hERG current change (%, negative = inhibition) at 10uM” value was -21.4%.
Then `Cc1ccc(Cl)c(OCC(=O)Nc2cc(S(=O)(=O)N3CCOCC3)ccc2N2CCCC2)c1`, with -15.4%.
For `CCc1ccc(-c2cc3c(=O)n(CC(=O)NCCCN4CCN(CC)CC4)nc(C)n3n2)cc1`, the “hERG current change (%, negative = inhibition) at 10uM” value was -30%.
Then `Cc1cc(NC(=O)CCC(=O)N(c2ccccc2)C(C(=O)NC2CCCC2)c2ccc(F)cc2)no1` (centres unmarked), with 25.9%; and `Cc1cc(OC(=O)c2cccc(Cl)c2)c([N+](=O)[O-])c(=O)[nH]1`, with 19.9%.
For `CC(C)N1CCN(Cc2ccc(OC3CCCC3)cc2)CC1CCO` (centres unmarked) the value was -10.7%.
For `CC(C)(CC(=O)O)CC(=O)N1CCCN(c2nc3ccc(Cl)cc3s2)CC1` the value was 10.2%.
